In article PMC4336329 (PLoS ONE, 2015):
In all, about 310,000 compounds went through this assay and about 2,200 (0.71%) showed an effect of 50% or more. Effects have a minus sign here. The list shows a part of the results.

Each compound was assayed against human ether-à-go-go-related gene (hERG) potassium channel (human, UniProt Q12809) (assay: primary screen, population patch clamp on CHO cells stably expressing hERG).
Sequence of human ether-à-go-go-related gene (hERG) potassium channel (Q12809 whole entry, looked up): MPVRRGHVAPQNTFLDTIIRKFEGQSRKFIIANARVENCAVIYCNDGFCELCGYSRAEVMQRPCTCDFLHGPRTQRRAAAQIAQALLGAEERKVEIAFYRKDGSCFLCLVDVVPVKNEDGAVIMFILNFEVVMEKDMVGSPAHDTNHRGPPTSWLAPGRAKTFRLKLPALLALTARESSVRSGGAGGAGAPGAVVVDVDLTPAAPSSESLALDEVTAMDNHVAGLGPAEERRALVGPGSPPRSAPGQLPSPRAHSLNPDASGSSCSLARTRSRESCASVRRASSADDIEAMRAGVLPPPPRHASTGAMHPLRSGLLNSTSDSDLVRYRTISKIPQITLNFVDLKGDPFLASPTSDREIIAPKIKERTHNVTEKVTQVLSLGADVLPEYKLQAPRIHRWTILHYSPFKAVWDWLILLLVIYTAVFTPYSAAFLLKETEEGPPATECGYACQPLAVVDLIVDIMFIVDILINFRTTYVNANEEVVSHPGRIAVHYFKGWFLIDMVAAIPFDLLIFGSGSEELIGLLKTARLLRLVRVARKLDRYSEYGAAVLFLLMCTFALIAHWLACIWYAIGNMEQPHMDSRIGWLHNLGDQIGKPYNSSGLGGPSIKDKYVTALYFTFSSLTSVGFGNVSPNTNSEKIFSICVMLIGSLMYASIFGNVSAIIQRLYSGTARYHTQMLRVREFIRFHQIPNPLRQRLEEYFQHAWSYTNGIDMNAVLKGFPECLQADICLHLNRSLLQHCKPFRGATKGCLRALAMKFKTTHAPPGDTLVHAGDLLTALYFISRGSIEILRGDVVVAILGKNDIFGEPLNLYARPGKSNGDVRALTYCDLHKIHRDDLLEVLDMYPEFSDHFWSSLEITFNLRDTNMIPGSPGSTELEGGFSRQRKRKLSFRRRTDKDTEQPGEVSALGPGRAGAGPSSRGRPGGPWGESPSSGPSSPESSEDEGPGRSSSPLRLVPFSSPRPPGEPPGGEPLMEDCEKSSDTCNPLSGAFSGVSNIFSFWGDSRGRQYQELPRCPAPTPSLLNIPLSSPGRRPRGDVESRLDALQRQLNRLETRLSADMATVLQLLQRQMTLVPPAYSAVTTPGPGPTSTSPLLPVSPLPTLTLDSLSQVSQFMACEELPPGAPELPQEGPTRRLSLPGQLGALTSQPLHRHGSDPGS

SMILES | hERG current change (%, negative = inhibition) at 1uM [%]
COc1cccc(CN(C)CC(O)COC(c2ccccc2)c2ccccc2C)c1 (centres unmarked) | -8.56
NC(=O)CSc1ncc(-c2ccccc2)[nH]1 | 11.4
CC(=O)Nc1ccc(S(=O)(=O)NCCCN2CCN(Cc3ccccc3)CC2)cc1Cl | -5.81
CC(=O)Nc1ccc(Nc2nc(C(F)(F)F)nc3c2nnn3Cc2ccccc2Cl)cc1 | 14.1
CC(=O)c1sc(NC(=O)c2cccc(C)c2)nc1C | 14.7
COC(=O)c1c[nH]n2c(=O)c(Cc3ccc(F)cc3Cl)c(C)nc12 | 7.15
Nc1nnnn1/N=C/c1ccc(N2CCCCC2)c([N+](=O)[O-])c1 | 14.8
CCOC(=O)C1=C(COC(=O)COc2ccc(C(C)=O)cc2)NC(=O)NC1C (centres unmarked) | 5.59
CCOC(=O)/C(C#N)=C/c1cn(CCC(=O)O)nc1-c1ccc(F)cc1 | 8.06
CN(Cc1ccc(C(F)(F)F)cc1)C(=O)c1ccc2ccccc2n1 | 12.5
O=C(O)Cc1c(O)ccc2ccccc12 | 11.7
CN(Cc1ccc(F)cc1)C(=O)CNC(=O)c1cccs1 | 20.8
CC(=O)Nc1ccc(NC(=O)C(Sc2ccccc2)c2ccccc2)cc1 (centres unmarked) | 18.7
CC(C)c1ccc(NC(=O)NCc2ccccn2)cc1 | 9.47
N#Cc1c(NC(=O)C2CC(Cl)=CCC2C(=O)O)sc2c1CCCCC2 (centres unmarked) | 2.73
S=C1NCN(Cc2ccccc2)CN1 | 11.8
COc1ccc(C(=O)COC(=O)c2ccc(NC(C)=O)cc2)cc1[N+](=O)[O-] | -1.33
c1ccc(C(Cc2nc(-c3cccnc3)no2)c2ccccc2)cc1 | 13.2
CC1CC2(C)CC(C)C1(COC(=O)Nc1ccccc1)CO2 (centres unmarked) | 12.6
Cc1c(C(=O)Nc2cccc([N+](=O)[O-])c2)cnn1-c1ccccc1 | 8.38
COc1cc(OC)cc(C(=O)NC(=S)N2CCCCCC2)c1 | 15.5
CCOC(=O)C1CCCN(Cc2nc(C3CC3)no2)C1 (centres unmarked) | 14.8
O=C(COC(=O)c1ccccc1O)Nc1ccc(S(=O)(=O)N2CCCCC2)cc1 | 10.7

SMILES | hERG current change (%, negative = inhibition) at 1uM [%]
O=C(c1cc(C2CC2)nn1-c1ccccc1)N1CCN(Cc2ccc(Cl)cc2)CC1 | -6.69
N#Cc1ccc(-c2ccc(OCC(=O)NCCc3ccccc3)cc2)cc1 | 14.3
CNc1ccc(Br)cc(C(=O)/C=C/c2cccc(OC)c2OC)c1=O | -10.7
CCOC(=O)c1c(NC(=O)CN2CCCc3ccccc32)sc(C(C)=O)c1C | 13.8
CN(C)c1ccc(/C=N/NC(=O)CCCCCNC(=O)c2ccccc2)cc1 | 14
COc1ccccc1NC(=O)COC(=O)c1ccc([N+](=O)[O-])s1 | 7.58
NC(=O)c1ccsc1NC(=O)COC(=O)c1cc(Cl)ccc1O | 2.98
CCOC(=O)C1CCN(c2cc(=O)n(-c3ccc(OC)cc3)c(=O)[nH]2)CC1 | 10.3
Cc1ccc(NC(=O)/C(=C/c2cccs2)NC(=O)c2ccco2)c(C)c1 | -0.908
O=C(c1cc(-c2ccco2)on1)N1CCCc2ccccc21 | 13.7
O=C(O)c1ccccc1OC(=O)C12CC3CC(CC(C3)C1)C2 | 19.2
CCCCc1ccc(-c2ccc(C)cc2O)nc1 | -3.35
O=C(Cn1cc2c(n1)CCCC2)NCCc1ccccc1 | 8.55
COc1ccc(NC(=O)CCOc2ccc(C)cc2)cc1S(=O)(=O)N1CCCCC1 | -8.59
Cc1ccsc1C(=O)Nc1nc2ccccc2[nH]1 | 6.11
O=C(N/N=C/c1ccccc1C(=O)O)C(=O)N1CCCCC1 | 15.7
CC(=O)Nc1ccc(C(=O)OCC(=O)c2ccc(S(=O)(=O)N3CCCCC3)cc2)cc1 | 14.2
COc1cc2c(-c3ccc(O)cc3)nc3c(c(C)nn3-c3ccccc3)c2cc1OC | 14.6
CCN1C(=NCCc2cccs2)N[C@@H](c2cccs2)C(C(=O)OC)=C1C | -13.7
Cc1ccc2cc(C#N)c(NCc3ccco3)nc2c1 | 11.1
COc1ccc(/C=N/NC(=O)CCSc2nc3ccccc3s2)cc1OC | 8.32
O=C(COC(=O)c1ccc2ncsc2c1)NC(=O)c1ccccc1 | 15
CN(C(=O)COC(=O)c1ccc([N+](=O)[O-])cc1N)c1ccccc1 | -0.885

SMILES | hERG current change (%, negative = inhibition) at 1uM [%]
c1ccc(CSc2nc3ccccc3[nH]2)cc1 | 9.75
CC1Cc2cc(/C(O)=C3/C(=O)C(=O)N(CCN4CCOCC4)C3c3ccc(C(C)C)cc3)ccc2O1 (centres unmarked) | 13.8
CCOc1ccc(CN(C)CC(=O)c2c(N)n(Cc3ccccc3)c(=O)n(CC)c2=O)cc1OC | -82.5
COc1cccc2cc(C(=O)Oc3ccccc3)c(=O)oc12 | 11.8
C[C@H](NC(=O)[C@@H]1Cc2ccccc2CN1)C(=O)Nc1ccc2c(c1)OCCO2 | 20.4
Cn1c(CNC(=O)c2cccs2)nnc1SCC(=O)Nc1ccccc1 | 13.3
Cc1ccccc1NC(=O)CSc1nc(-c2ccccc2)cc(=O)[nH]1 | 15
COc1cc(CNC(=O)C2CCC(=O)N(C3CCCCCC3)C2)cc(OC)c1 (centres unmarked) | 9.26
Cc1cccc(C)c1NC(=O)CSc1nnc([C@@H]2CCCN2C(=O)OC(C)(C)C)o1 | 2
COC(=O)c1ccccc1NC(=O)CNc1ccc(F)c(S(=O)(=O)N2CCOCC2)c1 | -4.51
Clc1cccc(CN2CCCCCC2)c1Cl | 9.57
Cc1ccc(C(=O)NCCC(=O)NCc2cc(=O)n(C)c(=O)n2C)cc1 | 3.2
Cc1oc(C(=O)O)cc1COc1cccc2cccnc12 | -5.92
COC(=O)c1ccc(NC(=O)CSc2nnc(-c3cccnc3)o2)cc1 | -6.83
CCNc1nn2ccccc2c1/C=C(\C#N)C(=O)OCC | 12.6
COc1ccc(N2CCN(C(c3cccs3)c3nnnn3C3CCCC3)CC2)cc1 (centres unmarked) | -8.12
CCCCN(C(=O)c1ccccc1OCc1ccc(F)cc1)c1c(N)n(CC(C)C)c(=O)[nH]c1=O | 6.23
COc1ccc(Cl)cc1/C=N/NC(=O)c1c(-c2ccccc2)noc1C | 6.85
N/C(=N\OC(=O)c1ccccc1Cl)c1ccncc1 | 10.3
Nc1nc(Sc2ccc(C(F)(F)F)cc2[N+](=O)[O-])n[nH]1 | 0.481
Cc1cc(C)cc(N2CC(C(=O)Nc3cc(C)on3)CC2=O)c1 (centres unmarked) | 13.5
Cn1c(/C=C/N(Cc2ccccc2)c2ccccc2)c([N+](=O)[O-])c(=O)n(C)c1=O | -8.63
CCOc1cc(-c2noc(CCC(=O)NCC3CCCO3)n2)ccc1OC (centres unmarked) | 11.2

SMILES | hERG current change (%, negative = inhibition) at 1uM [%]
CCOC(=O)c1c(C)[nH]c(C(=O)COC(=O)Cn2cc(C(F)(F)F)ccc2=O)c1C | 17.5
CCn1c(SCC(=O)Nc2ccccc2)nnc1-c1ccc(S(=O)(=O)N2CCOCC2)cc1 | 4.24
COC(=O)C1=C(c2ccc(F)cc2OCc2ccccc2)C[C@@H]2CC[C@H]1N2C(=O)NCc1ccc(Br)cc1 | 18.1
COc1ccc(-c2cc3nc(C)cc(C)n3n2)cc1 | 3.78
CCc1nc(SCCO)c2oc3ccccc3c2n1 | 13.5
O=C(COc1ccc(-c2ccccc2)cc1)N/N=C/c1cccnc1 | 11.7
COc1ccccc1CCNC(=O)C(=O)NCCC1CCCCN1S(=O)(=O)c1ccccc1 (centres unmarked) | -2.26
c1ccc(-c2nc(-c3cccs3)[nH]c2-c2ccccc2)cc1 | 20.2
O=C(O)C1CCC(N2C(=O)C3CCCCC3C2=O)CC1 (centres unmarked) | 9.98
O=C(N=Nc1c(O)n(Cc2ccccc2)c2ccccc12)c1cc2ccccc2cc1O | 14.7
Cn1c(C(=O)NCc2ccccn2)cc2c(=O)n(C)c3ccccc3c21 | 6.99
OC(CN1c2ccccc2Sc2ccccc21)Cn1nnc2ccccc21 (centres unmarked) | 12.9
Cl.Nc1nonc1C(=O)NCCNCc1ccccc1OCc1ccccc1F | -10.8
CCN(Cc1cccc(OC)c1)CC1CCCN(CCc2cccc(OC)c2)C1 (centres unmarked) | 6.78
CCc1cc(C(=O)OC)c(NC(=O)CN2CCN(C(=O)C3CCCO3)CC2)s1 (centres unmarked) | -19.5
COc1ccc(C(CNC(=O)Cc2ccccc2)N2CCCCC2)cc1 (centres unmarked) | 13.3
Clc1ccc(SCc2cc(-c3ccccc3)no2)cc1 | 2.91
COC(=O)c1scc(C)c1N/N=C(\C)c1ccc(F)cc1F | 3.73
Cc1nc2ccccc2c(=O)n1/N=C/c1ccncc1 | 13.1
OCC(O)/C=N/Nc1nc(Nc2ccccc2)nc(Nc2ccccc2)n1 (centres unmarked) | 4.04
